Hit rate of the full screen: of about 310,000 compounds, about 2,200 (0.71%) showed an effect of 50% or more. The effect is printed as a negative number. Some of the results follow.
These compounds were tested against human ether-à-go-go-related gene (hERG) potassium channel (human, UniProt Q12809) (assay: primary screen, population patch clamp on CHO cells stably expressing hERG).
Chain of human ether-à-go-go-related gene (hERG) potassium channel (Q12809 whole entry, looked up): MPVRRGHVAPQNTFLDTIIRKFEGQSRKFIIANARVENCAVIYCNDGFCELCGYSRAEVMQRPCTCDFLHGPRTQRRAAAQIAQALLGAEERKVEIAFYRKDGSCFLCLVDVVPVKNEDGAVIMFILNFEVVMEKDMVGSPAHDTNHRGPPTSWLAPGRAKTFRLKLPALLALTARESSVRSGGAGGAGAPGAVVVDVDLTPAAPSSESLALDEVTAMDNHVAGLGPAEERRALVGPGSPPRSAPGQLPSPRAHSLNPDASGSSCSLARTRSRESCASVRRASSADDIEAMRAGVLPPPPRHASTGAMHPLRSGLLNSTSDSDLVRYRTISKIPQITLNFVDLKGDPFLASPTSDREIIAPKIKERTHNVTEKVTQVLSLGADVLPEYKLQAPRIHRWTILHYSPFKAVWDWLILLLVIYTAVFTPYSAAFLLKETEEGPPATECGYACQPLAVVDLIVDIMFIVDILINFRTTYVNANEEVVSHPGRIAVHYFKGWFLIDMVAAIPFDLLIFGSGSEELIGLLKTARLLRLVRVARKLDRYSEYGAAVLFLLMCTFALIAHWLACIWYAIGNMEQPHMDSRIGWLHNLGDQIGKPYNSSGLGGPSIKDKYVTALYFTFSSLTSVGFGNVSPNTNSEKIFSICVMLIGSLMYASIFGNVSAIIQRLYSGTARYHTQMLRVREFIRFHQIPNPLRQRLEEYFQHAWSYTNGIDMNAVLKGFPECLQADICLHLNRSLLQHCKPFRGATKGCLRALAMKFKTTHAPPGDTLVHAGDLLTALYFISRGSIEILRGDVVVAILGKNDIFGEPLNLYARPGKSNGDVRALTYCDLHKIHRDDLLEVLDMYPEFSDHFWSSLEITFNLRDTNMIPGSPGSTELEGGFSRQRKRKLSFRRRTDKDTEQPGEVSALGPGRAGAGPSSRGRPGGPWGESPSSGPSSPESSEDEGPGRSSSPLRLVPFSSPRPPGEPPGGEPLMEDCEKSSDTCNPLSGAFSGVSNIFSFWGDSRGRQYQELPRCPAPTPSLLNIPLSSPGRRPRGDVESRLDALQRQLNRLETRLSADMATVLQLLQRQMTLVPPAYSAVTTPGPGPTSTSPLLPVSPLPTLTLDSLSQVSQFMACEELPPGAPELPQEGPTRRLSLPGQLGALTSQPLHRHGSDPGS
In the case of `Cc1n[nH]c(C)c1S(=O)(=O)N1CCCC(C(=O)Nc2ccc3c(c2)OCCO3)C1` (stereo not drawn), the “hERG current change (%, negative = inhibition) at 1uM” value is reported as 6.36%. `CC(=O)N1c2ccc(S(=O)(=O)N3CCCC(C(=O)N4CCC(C)CC4)C3)cc2CC1C` (stereo not drawn) was tested, and the “hERG current change (%, negative = inhibition) at 1uM” value was 5.47%. For `O=C(CCN1CCOCC1)N1CCCC(Nc2ccc(F)cc2)C1` (stereo not drawn), the “hERG current change (%, negative = inhibition) at 1uM” value was 16.1%. For `O=C(CSc1nc2scc(-c3ccccc3)c2c(=O)[nH]1)N1CCCCC1`, the “hERG current change (%, negative = inhibition) at 1uM” value was 14.3%. `CCN(C(=O)CSc1nnnn1-c1ccccc1)c1c(N)n(Cc2ccccc2)c(=O)[nH]c1=O` was tested, and the “hERG current change (%, negative = inhibition) at 1uM” value was 15.9%. For `C=CCOC(=O)C1=C[C@H](c2cn(C(C)=O)c3ccccc23)C[C@H](OCc2ccc(CO)cc2)O1`, the “hERG current change (%, negative = inhibition) at 1uM” value was 14.6%. For `O=C1CC(c2ccc(O)cc2)Oc2ccccc21` (stereo not drawn), the “hERG current change (%, negative = inhibition) at 1uM” value was 4.37%. With `COc1ccc(-c2oc3ccc(-c4cc(OC)c(OC)c(OC)c4)cc3c2-c2ccc(OC)cc2)cc1` the “hERG current change (%, negative = inhibition) at 1uM” value was 16.1%. In the case of `Cc1cc(C)nc(SCc2nnc(SCC(=O)N3CCOCC3)o2)n1`, the “hERG current change (%, negative = inhibition) at 1uM” value is reported as 4.34%. With `CCOC(=O)CN1CC23C=CC(O2)C(C(=O)NCCc2ccccc2)C3C1=O` (stereo not drawn) the “hERG current change (%, negative = inhibition) at 1uM” value was 11.1%. With `CN(CCOC(=O)/C=C/c1ccco1)Cc1ccccc1` the “hERG current change (%, negative = inhibition) at 1uM” value was 9.76%. `CC1CCCCN1Cc1ccc(-c2nn[nH]n2)cc1` (stereo not drawn) was tested, and the “hERG current change (%, negative = inhibition) at 1uM” value was 19.1%. With `O=C(Nc1ccc(Cl)cn1)c1ccc(Br)c(S(=O)(=O)N2CCCCC2)c1` the “hERG current change (%, negative = inhibition) at 1uM” value was 13.3%. `CN(C)/C=N/c1nc(-c2ccc3ccccc3c2)cs1` was tested, and the “hERG current change (%, negative = inhibition) at 1uM” value was 9.84%. For `CCCCCc1ccc(-c2cn(Cc3ccc(C(=O)c4ccccc4)cc3)nn2)cc1`, the “hERG current change (%, negative = inhibition) at 1uM” value was 13.7%. `O=C(NC1CCCCC1)NC1(C(=O)NCCCN2CCOCC2)CCCCC1` was tested, and the “hERG current change (%, negative = inhibition) at 1uM” value was 4.58%. For `CC(C)N1CC(C(=O)Nc2nc3ccccc3s2)CC1=O` (stereo not drawn), the “hERG current change (%, negative = inhibition) at 1uM” value was 6.73%. In the case of `CNc1nnc(-c2ccco2)s1`, the “hERG current change (%, negative = inhibition) at 1uM” value is reported as 14.3%. In the case of `CCc1ccc(OCC(=O)Nc2ccc(S(=O)(=O)Nc3cc(C)on3)cc2)c(Br)c1`, the “hERG current change (%, negative = inhibition) at 1uM” value is reported as 14.2%. In the case of `CCCSc1nc(N)nc(-c2cccs2)c1C#N`, the “hERG current change (%, negative = inhibition) at 1uM” value is reported as 4.01%. With `Clc1ccc(-n2c(SC/C=C/c3ccccc3)nnc2-c2cccnc2)cc1` the “hERG current change (%, negative = inhibition) at 1uM” value was 3.6%. With `CCC(=O)N(CCc1ccc(S(N)(=O)=O)cc1)C1CC(=O)N(c2ccc(OC)cc2)C1=O` (stereo not drawn) the “hERG current change (%, negative = inhibition) at 1uM” value was 9.87%. In the case of `C=CCC1(C#N)C(=S)NC2=C(C(=O)CC(C)(C)C2)C1c1ccc(Br)cc1` (stereo not drawn), the “hERG current change (%, negative = inhibition) at 1uM” value is reported as 12.3%. `Cc1ccc(S(=O)(=O)N2[C@@H](c3ccc(F)cc3)C(C(=O)O)=CC[C@H]2c2ccc(Cl)cc2)cc1` was tested, and the “hERG current change (%, negative = inhibition) at 1uM” value was 5.44%. For `O=C(CN1C2CCCC1CC(NC(=O)C1CCCCC1)C2)Nc1ccccc1C(F)(F)F` (stereo not drawn), the “hERG current change (%, negative = inhibition) at 1uM” value was 3.36%. `COc1ccc(OC[C@@H](O)CNC(=O)c2cccc3c2C(=O)c2ccc(Cl)cc2S3(=O)=O)cc1` was tested, and the “hERG current change (%, negative = inhibition) at 1uM” value was -0.421%. For `CCCN(CCC)C(=O)C1CCC(CNS(=O)(=O)c2cccc3nsnc23)CC1` (stereo not drawn), the “hERG current change (%, negative = inhibition) at 1uM” value was -16.1%. With `COc1ccccc1-c1cc(C(=O)N/N=C/c2cccs2)c2ccccc2n1` the “hERG current change (%, negative = inhibition) at 1uM” value was 10.7%. With `O=C(CN1CCN(Cc2ccccc2)CC1)Nc1cccc(Cl)c1` the “hERG current change (%, negative = inhibition) at 1uM” value was -27.7%. For `CN(CC(=O)Nc1cccc(S(=O)(=O)N(C)C)c1)Cc1ccccc1`, the “hERG current change (%, negative = inhibition) at 1uM” value was 16.6%. For `CC(C)CCN1CCC(n2nccc2NC(=O)C2CCOC2)CC1` (stereo not drawn), the “hERG current change (%, negative = inhibition) at 1uM” value was 16.3%. With `O=C(c1ccc2snnc2c1)N1CCN(c2ccccc2)CC1` the “hERG current change (%, negative = inhibition) at 1uM” value was -5.25%. In the case of `Cc1ccc(C2C(S(C)(=O)=O)=C(O)C(=O)N2c2ccccc2)cc1.Nc1ccccc1` (stereo not drawn), the “hERG current change (%, negative = inhibition) at 1uM” value is reported as 3.91%. With `Cc1ccc(COc2ccc(-c3nnco3)cc2)cc1` the “hERG current change (%, negative = inhibition) at 1uM” value was 15.1%. With `Cc1nn(C)c(C)c1NC(=O)c1ccnn1C` the “hERG current change (%, negative = inhibition) at 1uM” value was -3.47%. In the case of `CCOC(=O)c1nnc2ccnn2c1N`, the “hERG current change (%, negative = inhibition) at 1uM” value is reported as 18.3%. `O=C1NC(=O)N(c2ccccc2)C(=O)/C1=C\C=C\c1ccccc1` was tested, and the “hERG current change (%, negative = inhibition) at 1uM” value was 12.1%. In the case of `Cc1ccc(NC(=O)CSCCc2ccccn2)nc1`, the “hERG current change (%, negative = inhibition) at 1uM” value is reported as 7.11%. In the case of `COc1ccccc1NC(=O)c1sc2nc3n(c(=O)c2c1C)CCC3`, the “hERG current change (%, negative = inhibition) at 1uM” value is reported as 13.1%. In the case of `COc1ccc(-c2noc(CCC(=O)NCCN(C)Cc3ccccc3)n2)cc1`, the “hERG current change (%, negative = inhibition) at 1uM” value is reported as -5.25%. With `COc1ccc(CN2CCC(C(=O)NCCc3ccc(OC)c(OC)c3)CC2)c(OC)c1` the “hERG current change (%, negative = inhibition) at 1uM” value was 6.06%. In the case of `Cc1cc(NC(=O)CCC(=O)N(CC(=O)NCC2CCCO2)c2ccccc2C)no1` (stereo not drawn), the “hERG current change (%, negative = inhibition) at 1uM” value is reported as 14.3%. For `COc1ccc(CCN2CCCn3c2nc2c3c(=O)n(Cc3ccccc3F)c(=O)n2C)cc1OC`, the “hERG current change (%, negative = inhibition) at 1uM” value was -2.77%. In the case of `CC1=C(C#N)C(=O)N(C2CCS(=O)(=O)C2)C(=O)/C1=C\c1ccco1` (stereo not drawn), the “hERG current change (%, negative = inhibition) at 1uM” value is reported as 11.6%. In the case of `COc1ccc(CCNC(=O)COC(=O)c2ccc(F)c(S(=O)(=O)N3CCOCC3)c2)cc1`, the “hERG current change (%, negative = inhibition) at 1uM” value is reported as -9.09%. In the case of `CNC(=O)C1=NCCCc2cc(OC)c(OC)cc21`, the “hERG current change (%, negative = inhibition) at 1uM” value is reported as -7.35%. In the case of `COc1ccccc1CNC(=O)C1CC(c2cccc([N+](=O)[O-])c2)=NO1` (stereo not drawn), the “hERG current change (%, negative = inhibition) at 1uM” value is reported as -6.28%. `C=CCn1c(SCC(=O)c2ccc(Br)cc2)nnc1C(C)NC(=O)Cc1ccc(OC)cc1` (stereo not drawn) was tested, and the “hERG current change (%, negative = inhibition) at 1uM” value was -4.53%. In the case of `O=C(CSc1nc2ccccc2[nH]1)Nc1nc(-c2cccc(Br)c2)cs1`, the “hERG current change (%, negative = inhibition) at 1uM” value is reported as 16.2%. With `COc1ccc(NC(=O)CS(=O)(=O)c2cn(CC(=O)N3CCCC3)c3ccccc23)c(OC)c1` the “hERG current change (%, negative = inhibition) at 1uM” value was 6.44%. With `CCn1cc(CNC(=O)CCc2nnc(CCC3CCCCC3)o2)cn1` the “hERG current change (%, negative = inhibition) at 1uM” value was 11.2%. For `Cc1ccc(NC(=S)N2CCCC(c3nc4ccc(C)cc4[nH]3)C2)c(C)c1` (stereo not drawn), the “hERG current change (%, negative = inhibition) at 1uM” value was 3.52%. In the case of `Cl.Oc1ccccc1C1NCc2ccccc2-n2cccc21` (stereo not drawn), the “hERG current change (%, negative = inhibition) at 1uM” value is reported as 14.8%. With `COc1ccc(CN2C(=O)NC(=O)/C(=C/c3cc(OC)c(OC)c(OC)c3)C2=O)cc1` the “hERG current change (%, negative = inhibition) at 1uM” value was 11.5%.

Reference: article PMC4336329 (PLoS ONE, 2015)
